{
  "source": "PubChem BioAssay (Tox21)",
  "key": {"[1]": {"assay": "qHTS RealTime-Glo MT Cell Viability Assay in HepG2 cells - 24 hour (AID 1224867); note: nearly all actives have a fitted effect of over 50% in size; note: potency is the fitted concentration of half-maximal effect", "procedure,_shortened": "(§1)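 Compound treatment began 5 h after plating HepG2 cells (600/well) with NanoLuc luciferase and prosubstrate. Plates stayed at 37 C for 40 h; luminescence was captured at six time points, 0 h through 40 h.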"}, "[2]": {"assay": "qHTS RealTime-Glo MT Cell Viability Assay in HEK293 cells - 32 hour (AID 1224868)", "procedure,_shortened": "(§2)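 Quantitative high-throughput screen of the Tox21 10K library in HEK293: cells and RealTime-Glo reagents plated together, compound added at 5 h, luminescence monitored through 40 h at 37 C.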"}, "[3]": {"assay": "qHTS RealTime-Glo MT Cell Viability Assay in HEK293 cells - 16 hour (AID 1224872)", "procedure,_shortened": "as §2"}, "[4]": {"assay": "qHTS RealTime-Glo MT Cell Viability Assay in HEK293 cells - 40 hour (AID 1224874)", "settings": "RealTime-Glo luminescence; max response: stronger effect = lower value", "procedure,_shortened": "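600 cells/well were plated with the nonlytic NanoLuc/prosubstrate reagent, pre-incubated 5 h, then given 23 nL of compound in DMSO. Incubation at 37 C for 40 h, with luminescence from viable-cell-reduced substrate read repeatedly from 0 h.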"}, "[5]": {"assay": "A CellTox Green Cytotoxicity Assay to monitor cytotoxicity in HepG2 cells - 40 hour (AID 1224879)", "procedure,_shortened": "(§3)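 HepG2 cells, 600/well, preincubated 5 h with CellTox Green dye, then exposed to Tox21 compounds in DMSO at 37 C for up to 40 h. Dead-cell DNA fluorescence read at the indicated time point.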"}, "[6]": {"assay": "qHTS RealTime-Glo MT Cell Viability Assay in HepG2 cells - 40 hour (AID 1224870)", "procedure,_shortened": "(§4)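 HepG2 cells (600/well) mixed with RealTime-Glo MT reagent, settled 5 h at 37 C/5% CO2 before compound addition. Nonlytic NanoLuc luminescence from viable-cell prosubstrate reduction read repeatedly during 40 h treatment at 37 C.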"}, "[7]": {"assay": "A CellTox Green Cytotoxicity Assay to monitor cytotoxicity in HEK293 cells - 40 hour (AID 1224871)", "procedure,_shortened": "(§5)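 HEK293 cells, 600/well, were preincubated 5 hours and then exposed to compounds at 37 C for up to 40 hours. A cell-impermeant cyanine dye staining dead-cell DNA was read by fluorescence at 0, 8, 16, 24, 32 and 40 h time points.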"}, "[8]": {"assay": "qHTS RealTime-Glo MT Cell Viability Assay in HepG2 cells - 8 hour (AID 1224873)", "procedure,_shortened": "as §4"}, "[9]": {"assay": "A CellTox Green Cytotoxicity Assay to monitor cytotoxicity in HEK293 cells - 24 hour (AID 1224875)", "procedure,_shortened": "as §5"}, "[10]": {"assay": "qHTS RealTime-Glo MT Cell Viability Assay in HepG2 cells - 32 hour (AID 1224877)", "procedure,_shortened": "as §1"}, "[11]": {"assay": "A CellTox Green Cytotoxicity Assay to monitor cytotoxicity in HepG2 cells - 24 hour (AID 1224878)", "procedure,_shortened": "as §3"}, "[12]": {"assay": "A CellTox Green Cytotoxicity Assay to monitor cytotoxicity in HEK293 cells - 32 hour (AID 1224881)", "procedure,_shortened": "as §5"}},
  "note": "Several values for one entry are separate records, joined by “and”; a condition that tells them apart may be missing. Equal values may be shown once. This list was built around the results that the source calls inconclusive (neither active nor inactive); the mix of calls is not that of the screen. For some of these results: Potencies beside an inconclusive call are fits to weak or partial responses and may not hold up. More than one record can exist for a structure, and the calls need not agree. Activity calls are given as the source filed them. Calls come from the whole dose curve; as a rule, active = well fitted curve in the direction sought with a large enough effect in the repeat runs; inconclusive = weak or mixed curves; inactive = no such curve, though single readings can be large; an effect the other way counts as inactive or inconclusive. Tags give direction and shape of the fitted curve.",
  "data": [
    {"molecule": "CCC(=O)C(=O)CC", "values": [
      {"measurement": "Potency", "setting": "[1]", "result": "inactive"},
      {"measurement": "Potency", "setting": "[2]", "result": "inconclusive: 20.3 µM [cytotoxic, partial curve]"},
      {"measurement": "Potency", "setting": "[3]", "result": "inconclusive: 25.6 µM [cytotoxic, partial curve, poor fit]"},
      {"measurement": "Potency", "setting": "[4]", "result": "inconclusive: 25.6 µM [cytotoxic, partial curve]"},
      {"measurement": "Potency", "setting": "[5]", "result": "inactive"}
    ]},
    {"molecule": "c1csc(SSc2cccs2)c1", "values": [
      {"measurement": "Potency", "setting": "[1]", "result": "inconclusive: 54.9 µM [falling, single point]"},
      {"measurement": "Potency", "setting": "[2]", "result": "inconclusive: 49 µM [cytotoxic, single point]"},
      {"measurement": "Potency", "setting": "[6]", "result": "inconclusive: 54.9 µM [falling, single point]"},
      {"measurement": "Potency", "setting": "[7]", "result": "inconclusive: 43.6 µM [activator, partial curve, poor fit]"},
      {"measurement": "Potency", "setting": "[3]", "result": "inconclusive: 49 µM [cytotoxic, single point]"},
      {"measurement": "Potency", "setting": "[8]", "result": "inconclusive: 54.9 µM [falling, partial curve, poor fit]"},
      {"measurement": "Potency", "setting": "[4]", "result": "inconclusive: 49 µM [cytotoxic, single point]"},
      {"measurement": "Potency", "setting": "[9]", "result": "inactive"},
      {"measurement": "Potency", "setting": "[10]", "result": "inconclusive: 54.9 µM [cytotoxic, single point]"},
      {"measurement": "Potency", "setting": "[11]", "result": "inconclusive: 54.9 µM [activator, single point]"},
      {"measurement": "Potency", "setting": "[12]", "result": "inconclusive: 49 µM [activator, partial curve, poor fit]"}
    ]},
    {"molecule": "NC(=O)NC(N)=O", "values": [
      {"measurement": "Potency", "setting": "[1]", "result": "inactive"}
    ]},
    {"molecule": "N=C(N)c1ccc(OCCCCCOc2ccc(C(=N)N)cc2)cc1", "values": [
      {"measurement": "Potency", "setting": "[1]", "result": "inconclusive: 43.4 µM [falling, partial curve, poor fit]"},
      {"measurement": "Potency", "setting": "[2]", "result": "inconclusive: 19 µM [cytotoxic, partial curve]"},
      {"measurement": "Potency", "setting": "[6]", "result": "inconclusive: 46.8 µM [falling, single point]"},
      {"measurement": "Potency", "setting": "[7]", "result": "active: 48.8 µM and active: 46.8 µM and inactive"},
      {"measurement": "Potency", "setting": "[3]", "result": "inconclusive: 13.7 µM [cytotoxic, full curve] and inconclusive: 29.5 µM [cytotoxic, partial curve] and inconclusive: 23.9 µM [cytotoxic, partial curve, poor fit]"},
      {"measurement": "Potency", "setting": "[11]", "result": "inconclusive: 54.7 µM [activator, single point]"},
      {"measurement": "Potency", "setting": "[5]", "result": "active: 48.8 µM and inconclusive: 46.8 µM [activator, single point]"},
      {"measurement": "Potency", "setting": "[12]", "result": "inconclusive: 54.7 µM [activator, single point]"}
    ]}
  ]
}
